# Measured values reported in PubChem BioAssay AID504332 (National Center for Advancing Translational Sciences (NCATS), 2011).
# Where “and” joins values, the source holds several entries; their conditions need not be identical. Identical values can stand only once. The campaign covered roughly 350,000 compounds. About 31,000 (8.9%) were called active. Inconclusive means that the source gave no clear call. Such entries were picked first, then a sample of the others. Calls come from the whole dose curve; as a rule, active = well fitted inhibition curve with a large enough effect; inconclusive = small, poorly fitted or top-dose-only effect; inactive = no such curve, though single readings can be large or run the other way. Potencies beside an inconclusive call are fits to weak or partial responses and may not hold up.
# Molecular target: Histone-lysine N-methyltransferase EHMT2 (Homo sapiens) (UniProt Q96KQ7)
# UniProt Q96KQ7, sequence (Q96KQ7 whole entry, looked up): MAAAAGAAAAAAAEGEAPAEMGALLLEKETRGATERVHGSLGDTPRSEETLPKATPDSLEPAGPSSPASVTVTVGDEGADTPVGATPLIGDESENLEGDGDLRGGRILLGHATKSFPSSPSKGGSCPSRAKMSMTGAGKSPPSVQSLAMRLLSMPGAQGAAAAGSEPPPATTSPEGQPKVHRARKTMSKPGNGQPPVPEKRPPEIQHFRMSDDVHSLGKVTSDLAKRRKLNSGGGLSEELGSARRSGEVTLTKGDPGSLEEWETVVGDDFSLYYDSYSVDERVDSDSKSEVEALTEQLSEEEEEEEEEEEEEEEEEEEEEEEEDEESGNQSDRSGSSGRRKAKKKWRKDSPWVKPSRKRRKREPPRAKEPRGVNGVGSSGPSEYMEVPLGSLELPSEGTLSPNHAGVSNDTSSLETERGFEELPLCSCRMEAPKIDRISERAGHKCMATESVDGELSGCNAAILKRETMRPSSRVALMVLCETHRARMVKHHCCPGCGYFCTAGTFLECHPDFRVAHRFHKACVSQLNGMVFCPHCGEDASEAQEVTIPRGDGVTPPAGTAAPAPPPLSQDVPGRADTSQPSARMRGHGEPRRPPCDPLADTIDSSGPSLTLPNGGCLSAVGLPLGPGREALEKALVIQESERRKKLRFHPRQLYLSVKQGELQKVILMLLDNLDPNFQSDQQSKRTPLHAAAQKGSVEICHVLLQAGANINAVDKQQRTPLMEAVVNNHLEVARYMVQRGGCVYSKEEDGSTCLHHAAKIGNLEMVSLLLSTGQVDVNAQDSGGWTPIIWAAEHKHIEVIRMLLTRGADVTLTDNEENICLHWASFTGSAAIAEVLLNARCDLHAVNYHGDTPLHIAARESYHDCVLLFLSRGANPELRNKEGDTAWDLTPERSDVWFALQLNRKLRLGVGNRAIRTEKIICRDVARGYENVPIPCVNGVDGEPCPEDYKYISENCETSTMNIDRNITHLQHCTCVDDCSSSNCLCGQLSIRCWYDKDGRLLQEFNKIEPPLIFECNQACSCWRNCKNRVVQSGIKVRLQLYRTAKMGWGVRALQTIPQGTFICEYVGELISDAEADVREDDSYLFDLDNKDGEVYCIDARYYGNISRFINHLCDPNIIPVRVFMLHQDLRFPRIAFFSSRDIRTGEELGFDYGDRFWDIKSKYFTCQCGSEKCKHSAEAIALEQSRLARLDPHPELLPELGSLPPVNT
# Assay: qHTS Assay for Inhibitors of Histone Lysine Methyltransferase G9a; note: nearly all actives have a fitted effect of over 75% in size
# Conditions: G9a H3K9 monomethylation, AlphaScreen, 2 h; series mostly up to 59 µM
# In short: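 AlphaScreen detection with an anti-monomethyl H3K9 antibody quantified product after a 2 h room-temperature reaction containing 500 nM biotinylated H3K9 peptide, 20 µM SAM and 20 nM enzyme, which had been preincubated 15 min with compound.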
# Potency is the fitted concentration of half-maximal effect; tags give direction and shape of the fitted curve.
row,Compound,Potency
1,Cc1cccc(N(CC(N)=O)C2SC(=O)N(c3ccccc3)C2=O)c1 (stereo not given),"inconclusive: 10 µM [inhibitor, partial curve, poor fit]"
2,Cc1c(C)n(Cc2ccccc2)c2ccc(C(=O)NCCCN3CCOCC3)cc12,active: 50.1 µM
3,CCOc1ccc(Nc2nc(Cc3nnc(SCC(=O)O)o3)cs2)cc1,active: 50.1 µM
4,Cc1csc(NC(=O)c2ccc(C)c(S(=O)(=O)N3CCCCC3)c2)n1,"inconclusive: 56.2 µM [inhibitor, partial curve]"
5,CCCc1cc(=O)[nH]c(SCC(=O)N(C)C2CCS(=O)(=O)C2)n1 (stereo not given),inactive
6,CCCC(=O)Nc1ccc(C(=O)COC(=O)C2=COCCO2)cc1,"inconclusive: 89.1 µM [inhibitor, single point]"
7,O=C(N/N=C/c1ccc(O)c(O)c1)c1ccc(CSc2cccc3cccnc23)cc1,active: 35.5 µM
8,O=C(O)c1ccccc1Nc1ccccc1,active: 50.1 µM and active: 12.6 µM and active: 23.8 µM
9,Cc1cccc(NC(=O)CSc2nnc3scc(-c4ccccc4)n23)c1,inactive
10,CC(=O)c1ccc(N2CCN(c3ccccc3O)CC2)c([N+](=O)[O-])c1,active: 44.7 µM
11,O=C(COC(=O)c1ccc2[nH]c3c(c2c1)CCCC3)NC1CCS(=O)(=O)C1 (stereo not given),"inconclusive: 44.7 µM [inhibitor, partial curve]"
12,COc1ccc(N2CCN(C(=O)c3cccc4nc(C)oc34)CC2)cc1,"inconclusive: 79.4 µM [inhibitor, single point]"
13,CC1CCN(S(=O)(=O)c2ccc3c(c2)c(=O)c(C(=O)NCc2ccc(Cl)cc2)cn3C)CC1,inactive
14,O=c1c(N2CCN(c3cccc(C(F)(F)F)c3)CC2)csc2ccccc12,"inconclusive: 31.6 µM [inhibitor, single point]"
15,Cc1ccc2c(c1)C1(OCCCO1)C(=O)N2,inactive
16,CCn1c(C)nc2cc(C(=O)n3cc(C(=O)c4ccccc4O)cn3)ccc21,"inconclusive: 89.1 µM [inhibitor, partial curve, poor fit]"
17,O=C1c2ccccc2C(=O)N1Cc1nc(-c2ccccn2)no1,"inconclusive: 35.5 µM [inhibitor, partial curve, poor fit]"
18,CCOCC(=O)Nc1ccc(S(=O)(=O)N2CCC(c3nc4ccccc4[nH]3)CC2)cc1,"inconclusive: 2.24 µM [inhibitor, full curve, poor fit]"
19,CCOC(=O)N1CCC(Nc2c(NCCCN(CC)c3cccc(C)c3)c(=O)c2=O)CC1,active: 50.1 µM
20,CCC1CCC(c2nnc(-c3ccc([N+](=O)[O-])cc3)o2)CC1 (stereo not given),active: 10 µM
